# Publication PMC4336329 (PLoS ONE, 2015)
# Among all 310,000 compounds or so, about 14,000 (4.5%) showed an effect of 50% or more. Effects have a minus sign here. The list shows a part of the results.
# Target: human ether-à-go-go-related gene (hERG) potassium channel (human, UniProt Q12809)
# Assay: primary screen, population patch clamp on CHO cells stably expressing hERG
# 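Further: peak tail current of the secondary pulse compared with the same well before compound.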
# human ether-à-go-go-related gene (hERG) potassium channel, sequence (Q12809 whole entry, looked up): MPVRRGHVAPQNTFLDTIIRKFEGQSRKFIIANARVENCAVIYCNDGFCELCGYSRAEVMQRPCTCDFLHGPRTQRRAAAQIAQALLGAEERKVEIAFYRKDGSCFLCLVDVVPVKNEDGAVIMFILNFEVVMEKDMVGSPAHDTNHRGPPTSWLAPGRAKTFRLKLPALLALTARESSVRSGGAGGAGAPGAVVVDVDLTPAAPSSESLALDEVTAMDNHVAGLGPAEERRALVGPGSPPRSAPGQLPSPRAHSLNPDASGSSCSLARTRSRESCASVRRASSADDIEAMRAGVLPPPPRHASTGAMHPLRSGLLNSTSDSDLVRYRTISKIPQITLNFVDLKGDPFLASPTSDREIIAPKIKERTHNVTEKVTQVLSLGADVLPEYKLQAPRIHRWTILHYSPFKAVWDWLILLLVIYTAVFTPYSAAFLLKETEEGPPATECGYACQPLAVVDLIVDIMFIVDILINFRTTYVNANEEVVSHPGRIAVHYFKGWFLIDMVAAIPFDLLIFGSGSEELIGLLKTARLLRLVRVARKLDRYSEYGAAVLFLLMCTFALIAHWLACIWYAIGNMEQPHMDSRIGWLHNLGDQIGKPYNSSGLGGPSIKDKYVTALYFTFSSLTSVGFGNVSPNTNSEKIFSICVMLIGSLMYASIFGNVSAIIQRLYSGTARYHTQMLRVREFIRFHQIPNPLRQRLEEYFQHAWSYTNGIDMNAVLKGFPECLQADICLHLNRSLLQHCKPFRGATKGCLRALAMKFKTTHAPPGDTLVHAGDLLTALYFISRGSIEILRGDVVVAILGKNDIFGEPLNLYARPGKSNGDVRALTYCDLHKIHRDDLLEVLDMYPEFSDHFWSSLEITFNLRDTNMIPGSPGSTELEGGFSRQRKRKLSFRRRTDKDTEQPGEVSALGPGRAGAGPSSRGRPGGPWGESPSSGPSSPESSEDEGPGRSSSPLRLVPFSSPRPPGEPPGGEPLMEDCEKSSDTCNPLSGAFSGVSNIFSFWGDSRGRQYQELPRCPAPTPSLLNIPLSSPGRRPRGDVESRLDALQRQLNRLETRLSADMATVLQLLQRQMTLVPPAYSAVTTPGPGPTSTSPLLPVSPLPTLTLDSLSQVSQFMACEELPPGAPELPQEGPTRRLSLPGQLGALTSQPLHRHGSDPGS
row,Compound,"hERG current change (%, negative = inhibition) at 10uM [%]"
1,Cc1cccc2cc(CN(CCCN3CCOCC3)Cc3nnnn3C(C)(C)C)c(=O)[nH]c12,-20.8
2,Cc1cc(C)c2nc(NC(=O)C3CCCO3)sc2c1 (centres unmarked),-0.179
3,O=C(Cn1c2[n+](c3ccc(C(F)(F)F)cc31)CCCCC2)Nc1ccccc1.[Cl-],12.4
4,Cc1cc(NC(=O)CS(=O)(=O)c2ccc(Cl)cc2)no1,15.2
5,Cl.OC(CNC1CCCC1)COc1c(F)cc(Br)cc1F (centres unmarked),-27.3
6,Cc1ccc(NS(=O)(=O)c2cc(C(=O)N3CCc4ccccc4C3)ccc2Cl)cc1,8.92
7,N#CC12CNCC1CN=N2 (centres unmarked),16.2
8,CCCc1nnc(NC(=O)COc2ccc3c(c2)OCO3)s1,5.55
9,CCOCCn1c(CN2CCC(Cc3ccccc3)CC2)nc2c1c(=O)n(C)c(=O)n2C,-47.2
10,COc1ccccc1N(CC(=O)NCc1ccco1)S(C)(=O)=O,29.4
11,NC(=O)c1cccc(S(=O)(=O)N2CCCCC2)c1,-4.67
12,COc1ccc(NC(=O)c2ccco2)cc1NC(=O)c1ccc(C#N)cc1F,-10.6
13,Cc1ccc(CN=c2c([N+](=O)[O-])nn(-c3cccc(Cl)c3)n2O)cc1,6.84
14,O=C(CSc1nc2ncc(Cl)cc2[nH]1)c1ccc2c(c1)OCO2,7.87
15,O=C(Nc1ccccc1O)c1ccc(NS(=O)(=O)c2cccc3cccnc23)cc1,-9.67
16,COc1cccc(OC)c1C(=O)Nc1ccccc1Sc1ccccc1,-13.3
17,CC(=O)c1nccs1,11.9
18,COc1nc(N(C)S(=O)(=O)c2ccc(C)cc2)nc(C)c1Cl,5.9
19,Cc1cc(C(=O)CN2C(=O)NC3(CCCc4sccc43)C2=O)c(C)n1-c1ccc(Cl)cc1 (centres unmarked),3.87

row,Compound,"hERG current change (%, negative = inhibition) at 10uM [%]"
1,CCOc1ccc(N2CC(C(=O)NC3CCCCCC3)CC2=O)cc1 (centres unmarked),-15.4
2,OC[C@H]1O[C@@H](n2cnc3cc(Cl)c(Cl)cc32)[C@H](O)[C@@H]1O,3.14
3,O=C1CSC(c2ccccc2)N1Nc1nc(N2CCOCC2)nc(N2CCOCC2)n1 (centres unmarked),-0.218
4,Nc1ccn(CC(=O)NCc2ccccc2)c(=O)n1,17.6
5,CCc1ccc(N2CC(C)Cn3c2nc2c3c(=O)n(CCN3CCOCC3)c(=O)n2C)cc1 (centres unmarked),-38.5
6,COC(=O)c1ccc(COc2ccc(/C=C/C(=O)c3ccc(OC)c(CSCC(=O)O)c3)cc2OC)cc1,15
7,CCOC(=O)c1sc(N2C(=O)C(O)=C(C(=O)c3ccco3)C2c2cccc([N+](=O)[O-])c2)nc1C (centres unmarked),16.6
8,CN1CCC(N(C)S(=O)(=O)c2ccc(NC(=O)COc3cccc(C(F)(F)F)c3)cc2)CC1,-22.1
9,O=C(N[C@H](Cc1ccc(Cl)cc1)C(=O)O)OCC1c2ccccc2-c2ccccc21,10.5
10,Cc1ccccc1NC(=O)C1CCCN1S(=O)(=O)c1ccccc1C(F)(F)F (centres unmarked),-1.05
11,COc1ccc(-c2nn(-c3ccccc3)cc2/C=C/C(=O)NCCCn2ccnc2)cc1OC,-18.4
12,Cc1ccc(/C=N/NC(=O)CSc2nnc(-c3ccc(Cl)cc3)n2-c2ccccc2)o1,-39.5
13,O=C(COC(=O)c1ccco1)c1ccccc1,20.9
14,Cc1[nH]nc(SCC(=O)NC2CCCC2)c1[N+](=O)[O-],-16.7
15,CCCCOC(=O)c1cc(-c2ccc(/C=N/n3cnnc3)o2)ccc1Cl,5.69
16,CC(C)(CNC(=O)CNC(=O)c1ccccc1F)N1CCOCC1,21.3
17,Cc1ccc(Cn2cccc2C2=NC(C)CO2)cc1 (centres unmarked),-20.1
18,COc1ccc(C(=O)NC2CC2)cc1OC1CCN(Cc2ccc(SC)cc2)CC1,-88.7
19,COc1ccc(/C=C(\C#N)C(=O)OCC(=O)NC(=O)NCCC(C)C)cc1,0.707

row,Compound,"hERG current change (%, negative = inhibition) at 10uM [%]"
1,CC1CCCC(N2C(=O)NC(NC(=O)c3ccco3)(C(F)(F)F)C2=O)C1C (centres unmarked),-2.21
2,O=C(O)c1ccc(COc2ccccc2[N+](=O)[O-])o1,14.8
3,CCCCn1c(SCC(=O)c2ccc3c(c2)NC(=O)CO3)nc2cc(S(N)(=O)=O)ccc21,6.96
4,CS(=O)(=O)c1[nH]nc(-c2ccccc2)c1C#N,15.1
5,CCOc1ccc(C(=O)Nc2cccc(SC)c2)cc1,-13.1
6,CC(=O)Oc1ccc2c(=O)c(Oc3ccccc3)coc2c1OC(C)=O,2.25
7,Cc1cc2c(cc1C)N(Cc1ccc(Cl)cc1)C1=NCCCN12,-69.8
8,Cn1cccc1/C=N/NC(=O)c1ccn[nH]1,3.78
9,CC(C)N1CCN(S(=O)(=O)c2ccccc2)CC1.O=C(O)C(=O)O,22.2
10,N#Cc1c(N)sc2c1CCCCCC2,-8.8
11,CNC(=S)N/N=C/c1c(C)nn(-c2ccccc2)c1Cl,6.94
12,Cc1ccc(N2CC(C(=O)NCCS(=O)(=O)N3CCN(c4ccc(F)cc4)CC3)CC2=O)cc1 (centres unmarked),15.8
13,CCCCCCc1c(O)nc(SCCN2CCOCC2)[nH]c1=O.Cl,13.3
14,Cc1ccccc1NC(=S)NC(NC(=O)C(C)(C)C)C(Cl)(Cl)Cl (centres unmarked),-23.3
15,CCOc1ccc(C2c3[nH]c4ccccc4c3CCN2Cc2cccn2-c2ncccn2)cc1 (centres unmarked),-53.3
16,COCCn1c(SCC(=O)NCCc2ccc(OC)c(OC)c2)nc2c([nH]c3ccccc32)c1=O,4.74
17,Cc1nc(NC(=S)NC(=O)c2cncc(Br)c2)ccc1Br,12.9
18,Cc1ccc(NC(=O)c2ccc(C#CC3(O)CCCCC3)cc2)cc1C,3.93
